Results published in the supplement of paper PMC10338343.
± gives the standard deviation. Whole data set: some 5,500 sequences, median “pre-steady-state target cleavage rate” near 0.1, cut for the highest 2% near 0.64. This is a selection; strong and weak results do not stand in their true shares.

Test system: MIWI (PIWIL1) piRISC loaded with piRNA #2 (30 nt)
Experiment: pre-steady-state target cleavage rate (min^-1); MIWI and MILI are mouse PIWI proteins and EfPiwi is from a freshwater sponge; tags in brackets are library labels; higher = faster piRNA-guided slicing of the target
Settings: guide: piRNA #2 5'p-UUAGGUAACCCAGUAGAUCCAGAGGAAUUC; auxiliary factor: 500 nM mouse GTSF1
Outline: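 Three pooled Cleave-'n-Seq trials supplied the data, with k3 capped at 0.0001 min^-1. In each, […] transcribed, DNA-blocked target RNA library and 1 nM active affinity-purified piRISC with one synthetic guide reacted in HEPES–potassium acetate buffer at 33 °C for 0–8 or 0–960 min, with or without 500 nM GTSF1 partner protein. Uncleaved targets were sequenced and normalised to depth and to weakly complementary targets. A burst-and-steady-state fit provided the pre-steady-state cleavage rate.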

Row | Sequence | pre-steady-state target cleavage rate
1 | CUAUUCGUCUGGAUCUACUGGGUUACGUAA | 0.553 ± 0.07
2 | CAAUUCCUCUGGAUCUACUGGGAUUCCUAA | 0.2 ± 0.068
3 | CUUUUCCUCUGGUAGUACUGGGUUACCUAA | 0.141 ± 0.017
4 | CUUAUCCUCAGGAUCUACUGGGUUACCAAA | 0.397 ± 0.083
5 | GAAUUCCUCUGGAUCUACUGGGUUACCGUAA | 0.275 ± 0.053
6 | CUUAAGGUCUGGAUCUACUGGGUUAGCUAA | 0.16 ± 0.025
7 | GAAUUCCUCUGGAUCAACUGGCUUACCUAA | 0.0793 ± 0.012
8 | CUAUUCCUCUGGAUCUACUGGGUAACCAAA | 0.283 ± 0.085
9 | CUUAACCUCUGGAUCUACUGGGAUACCUUA | 0.0769 ± 0.015
10 | CUUUUCCUGUGGAACUACUGGGUUACCUAA | 0.188 ± 0.056
11 | CUUUACCUGUGGAUCUACUGGGUUACCUAA | 0.351 ± 0.029
12 | CUUUUCCUCUGGUUCUACUGCGUUACCUAA | 0.4 ± 0.035
13 | CUUAACCUCUGGAACUACUGCGUUACCUAA | 0.477 ± 0.051
14 | CUUAACCACUGGAUCUACUGGGUUUCCUAA | 0.152 ± 0.019
15 | CUUAAGCUCUGGAACUACUGCGUUACCUAA | 0.246 ± 0.036
16 | CUUUUCCUCUGGAUCUACUGGAUUACCUAA | 0.368 ± 0.036
17 | CUUAAGGUCUGGAUCGACUGGGUUACCUAA | 0.118 ± 0.024
18 | CUUUUCCUCUAGGAUCUACUGGGUUACCUAA | 0.252 ± 0.026
19 | GAAUUCCUCUGGAACUACUGGGUUACCUUA | 0.391 ± 0.097
20 | CUAUUCCUCUCGAUCUACAGGGUUACCUAA | 0.453 ± 0.025
21 | CUUAAGCUCUGGUUCUACUGGGUUACCUUA | 0.133 ± 0.017
22 | GAAUUGCUCUGGAUCUACUGGGUAACCUAA | 0.0363 ± 0.015
23 | CUUAACCUCUGGACCUACUGGGUUACCUAA | 0.0898 ± 0.012
24 | GAAUUCCUCUGGAUCUAGUGGGUUACCUUA | 0.104 ± 0.014

Row | Sequence | pre-steady-state target cleavage rate
25 | CUUAAGGAGUGGAUCUACUGGGUUACGAAA | 0.0113 ± 0.0074
26 | CUUAAGGUCUGGAUCUACUGGGUCUACCUAA | 0.119 ± 0.015
27 | CAAUUCCUCUGGAUCUACUGGCUUACGUAA | 0.0986 ± 0.037
28 | CUUAAGGUCUGGAUCUACUGGGUGACCUAA | 0.136 ± 0.021
29 | GAAUUCCUCUGGAUCUACUCGGGUUACCUAA | 0.00824 ± 0.0045
30 | CUUUCUCCUCUGGAUCUACUGGGUUACCUAA | 0.265 ± 0.041
31 | CAAUUCGUCUGGAUCUACUGGGUUACCAAA | 0.31 ± 0.056
32 | CUUAAGCUCACGAUCUACUGGGUUACCUAA | 0.364 ± 0.033
33 | CUUAACCUCUGGAUCUACUGCGUAACCUAA | 0.0884 ± 0.018
34 | CUUAAGGACUAGAUCUACUGGGUUACCUAA | 0.0815 ± 0.036
35 | CUUAUCCUCUGGAUCUACUGGCUUUCCUAA | 0.0784 ± 0.024
36 | CUUAAGGAGACGAUCUACUGUGUUACCUAA | 0.0232 ± 0.0092
37 | GAAUUCCUCUGGAUCUAGUGGGUUAGCUAA | 0.0779 ± 0.015
38 | GAAUUCCUCUGGACUCUACUGGGUUACCUAA | 0.183 ± 0.034
39 | CUUAAGGUCUGGAUCUACUGGAUUACCUAA | 0.204 ± 0.034
40 | CUUAAGGACAGGAUCUACUGGGAUACCUAA | 0.012 ± 0.0086
41 | CUUAAGGACUGGAUCAACUGGCUUACCUAA | 0.0268 ± 0.022
42 | CUAUUCGUCUGGAUCUACUGGGUUACCUAA | 0.452 ± 0.052
43 | CUUAAGGACAGGAUCUACUGGGUUUCCUAA | 0.00883 ± 0.0056
44 | GAAUUCCUCUGGAUCUACUGGGUUACCAUA | 0.364 ± 0.05
45 | CUUAAGGUCUCGAUGUACUGGGUUACCUAA | 0.118 ± 0.025
46 | GAAUUCAUCUGGAUCUACUGGGUUACCUAA | 0.37 ± 0.055
47 | CUUUUCCUCUGGAUCUUCUGGCUUACCUAA | 0.0234 ± 0.0076
48 | CUUAAGCUCUCGUUCUACUGGGUUACCUAA | 0.341 ± 0.034

Row | Sequence | pre-steady-state target cleavage rate
49 | CUUAAGGAGAGGGAUCUACUGGGUUACCUAA | 0.0161 ± 0.0038
50 | CUAUUCCUCUGGAUCUACUCGCUUACCUAA | 0.0038 ± 0.0037
51 | CUAUUCCUGUGGAUCUACUGGGUUACCUUA | 0.399 ± 0.048
52 | CAAUUCCUUUGGAUCUACUGGGUUACCUAA | 0.484 ± 0.061
53 | CUUAACCUCUGGAUCUACUGGGAUUACCUAA | 0.0523 ± 0.0087
54 | GAAUCCUCUGGAUCUACUGGGUUACCUAA | 0.304 ± 0.065
55 | CUAUUCCUCUGGUUCUUCUGGGUUACCUAA | 0.363 ± 0.04
56 | CUUAUCCACUGGAACUACUGGGUUACCUAA | 0.327 ± 0.03
57 | CUUUUCCUCUGGAUCUACUCGGUUAGCUAA | 0.0175 ± 0.0073
58 | CUUUUCCUCUGGAUCUUCUGGGUUACCAAA | 0.175 ± 0.027
59 | CUAUUCCACUGGAUCUACUGGGAUACCUAA | 0.393 ± 0.038
60 | CUUAAGGACUGGAUCUACUGGGUUACCUAG [g2:g22:cont:t1G] | 0.121 ± 0.033
61 | CUUAACCUCUGGUUCUUCUGGGUUACCUAA | 0.383 ± 0.047
62 | CAAUUCCUGUGCAUCUACUGGGUUACCUAA | 0.384 ± 0.029
63 | CUAUUCCAGAGGAUCUACUGGGUUACCUAA | 0.191 ± 0.035
64 | CUUAACCUCUCGAACUACUGGGUUACCUAA | 0.321 ± 0.031
65 | CAAUUCGUCAGGAUCUACUGGGUUACCUAA | 0.421 ± 0.065
66 | GAAUUCCUCUGGAUACUACUGGGUUACCUAA | 0.373 ± 0.056
67 | CUUUUGCUCUGCAUCUACUGGGUUACCUAA | 0.257 ± 0.03
68 | CUUAACCUCUGGAUCUUCUGGCUUACCUAA | 0.0208 ± 0.0068
69 | CUUUUCCUGUGGAUCUACUGGGUAACCUAA | 0.182 ± 0.042
70 | CUUAUGCUCUGGAUCUACUGGGUUUCCUAA | 0.131 ± 0.021
71 | CUUAAGGACUGGAUCUACUGGGUUGCCUAA | 0.0888 ± 0.035
72 | CUAUACCUCUGGAUGUACUGGGUUACCUAA | 0.428 ± 0.026
